# The other results are listed elsewhere or left out. Each Rep nickase domain was tested in vitro on the same pool of single strands (1 h at 37 °C, 3 µM enzyme); the outer parts of the 90-letter strands are left off. Numbers give uncut DNA relative to the enzyme-free pool, as log2; the lower, the more was cut; hits are not called. Because reads are shares of a total, they shift together; where an enzyme cuts many sequences, the uncut ones exceed 0.
# Test system: T1, Rep nickase domain of banana bunchy top virus
# T1 sequence (residues 1-94 of Rep, tag left off): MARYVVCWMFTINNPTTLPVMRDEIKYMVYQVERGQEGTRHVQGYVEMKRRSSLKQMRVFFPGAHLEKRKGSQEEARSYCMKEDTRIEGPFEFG
# Experiment: uncleaved DNA left, log2 of reads against the no-enzyme library (log2 ratio); higher = less cleavage (more negative = more Rep cleavage of the k-mer); sequences stand for … in CTCGTCCG…ACCGGAGA
# Experimental: (§1)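 A pool of 90-nt single-stranded DNAs with seven random bases just before the constant AC of the nick site (name = the seven bases) was cut by 3 µM recombinant His6-SUMO-tagged Rep nickase domain (300 nM DNA, 50 mM HEPES pH 8.0, 50 mM NaCl, 1 mM MnCl2, 1 h, 37 °C, three replicates). Uncut DNA was amplified and sequenced.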
row,Sequence,uncleaved DNA left (log2)
1,TCAATCA,0.149
2,GAAGCAG,-0.0125
3,ATCCTCT,-0.0249
4,AATCTGA,-0.0793
5,TGTGTGC,-0.0173
6,GACTGCT,-0.745
7,TGGTTGG,-0.00406
8,AAGATTT,-1.21
9,AGCATTA,0.0932
10,AATCGTG,-0.0701
11,GGAGTGA,0.0495
12,TGTTACG,-0.106
13,CCGCGAT,-0.0622
14,AGAATAT,-0.0613
15,TGCCTAC,0.0207
16,GTTTACA,0.0983
17,GCATAGA,0.045
18,GCTTTTA,0.182
19,TTCGAAG,-0.224
20,TTGTACA,-0.0111

row,Sequence,uncleaved DNA left (log2)
1,GAGGGGG,0.142
2,CGGGTAG,0.128
3,GTCAACG,-0.0273
4,GATGTAG,-0.243
5,GCGTGCC,-0.0923
6,AACTGTA,-0.0909
7,GGAAGAA,0.0427
8,ACTTGGC,-0.165
9,TGGCACG,0.0508
10,CGGGTAC,-0.111
11,ACCTTTA,0.0644
12,CGCCATA,0.00516
13,AATTCGT,-0.709
14,CGATTAT,0.0184
15,AGTGTTT,-0.093
16,AGCCATA,-0.0727
17,CCACAAG,-0.0106
18,GCATGAA,0.0744
19,CGTATGG,-0.00364
20,GACAACC,-0.0548

# Test system: T2, Rep nickase domain of cabbage leaf curl virus
# T2 sequence (residues 1-116 of Rep, tag left off): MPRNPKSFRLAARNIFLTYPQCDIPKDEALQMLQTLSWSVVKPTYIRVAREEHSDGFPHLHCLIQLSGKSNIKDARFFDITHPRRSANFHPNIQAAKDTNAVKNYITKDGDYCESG
# Experiment: as above
# Experimental: as §1
row,Sequence,uncleaved DNA left (log2)
1,TCAATCA,0.205
2,GAAGCAG,-0.116
3,ATCCTCT,-0.135
4,AATCTGA,0.0116
5,TGTGTGC,-0.163
6,GACTGCT,-0.296
7,TGGTTGG,-0.0218
8,AAGATTT,-0.16
9,AGCATTA,-0.0955
10,AATCGTG,-0.586
11,GGAGTGA,0.674
12,TGTTACG,-1.01
13,CCGCGAT,-0.102
14,AGAATAT,0.122
15,TGCCTAC,0.131
16,GTTTACA,0.262
17,GCATAGA,-0.111
18,GCTTTTA,0.181
19,TTCGAAG,-0.849
20,TTGTACA,0.142

row,Sequence,uncleaved DNA left (log2)
1,GAGGGGG,0.209
2,CGGGTAG,-0.103
3,GTCAACG,0.0831
4,GATGTAG,-0.799
5,GCGTGCC,0.115
6,AACTGTA,-0.128
7,GGAAGAA,0.696
8,ACTTGGC,-0.614
9,TGGCACG,-0.476
10,CGGGTAC,0.554
11,ACCTTTA,-0.287
12,CGCCATA,-0.128
13,AATTCGT,-0.876
14,CGATTAT,0.0347
15,AGTGTTT,0.0913
16,AGCCATA,-0.043
17,CCACAAG,-0.942
18,GCATGAA,0.0264
19,CGTATGG,-0.0235
20,GACAACC,0.131

# Test system: T3, Rep nickase domain of chickpea chlorotic dwarf virus
# T3 sequence (residues 1-124 of Rep, tag left off): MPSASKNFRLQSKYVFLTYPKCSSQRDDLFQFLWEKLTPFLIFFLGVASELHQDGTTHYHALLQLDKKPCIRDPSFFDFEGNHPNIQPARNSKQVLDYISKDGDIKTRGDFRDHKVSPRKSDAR
# Experiment: as above
# Experimental: as §1
row,Sequence,uncleaved DNA left (log2)
1,TCAATCA,-0.992
2,GAAGCAG,0.00543
3,ATCCTCT,-1.79
4,AATCTGA,0.428
5,TGTGTGC,-0.311
6,GACTGCT,-0.609
7,TGGTTGG,-0.238
8,AAGATTT,-2.33
9,AGCATTA,-0.522
10,AATCGTG,-0.742
11,GGAGTGA,1.31
12,TGTTACG,-1.04
13,CCGCGAT,-0.249
14,AGAATAT,-0.28
15,TGCCTAC,-0.867
16,GTTTACA,0.748
17,GCATAGA,0.13
18,GCTTTTA,0.339
19,TTCGAAG,-0.752
20,TTGTACA,-1.09

row,Sequence,uncleaved DNA left (log2)
1,GAGGGGG,0.4
2,CGGGTAG,0.00536
3,GTCAACG,0.455
4,GATGTAG,-0.76
5,GCGTGCC,0.373
6,AACTGTA,-0.364
7,GGAAGAA,1.52
8,ACTTGGC,-0.64
9,TGGCACG,-0.488
10,CGGGTAC,1.33
11,ACCTTTA,-1.62
12,CGCCATA,-0.582
13,AATTCGT,-1.42
14,CGATTAT,-0.392
15,AGTGTTT,-0.959
16,AGCCATA,-0.102
17,CCACAAG,-0.405
18,GCATGAA,0.329
19,CGTATGG,0.243
20,GACAACC,-0.649

# Test system: T4, Rep nickase domain of faba bean necrotic yellows virus
# T4 sequence (residues 1-98 of Rep, tag left off): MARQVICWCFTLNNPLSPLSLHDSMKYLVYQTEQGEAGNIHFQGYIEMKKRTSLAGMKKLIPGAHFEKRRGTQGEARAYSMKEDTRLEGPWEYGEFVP
# Experiment: as above
# Experimental: as §1
row,Sequence,uncleaved DNA left (log2)
1,TCAATCA,0.17
2,GAAGCAG,0.0164
3,ATCCTCT,-0.0257
4,AATCTGA,-0.0525
5,TGTGTGC,-0.066
6,GACTGCT,-0.0356
7,TGGTTGG,0.000963
8,AAGATTT,-0.489
9,AGCATTA,0.0372
10,AATCGTG,-0.0848
11,GGAGTGA,0.065
12,TGTTACG,-0.033
13,CCGCGAT,0.138
14,AGAATAT,0.0486
15,TGCCTAC,-0.0731
16,GTTTACA,0.0119
17,GCATAGA,0.0456
18,GCTTTTA,0.132
19,TTCGAAG,-0.0972
20,TTGTACA,-0.0404

row,Sequence,uncleaved DNA left (log2)
1,GAGGGGG,0.121
2,CGGGTAG,0.101
3,GTCAACG,-0.0545
4,GATGTAG,-0.0737
5,GCGTGCC,-0.0403
6,AACTGTA,0.0167
7,GGAAGAA,-0.0344
8,ACTTGGC,-0.0239
9,TGGCACG,0.0236
10,CGGGTAC,-0.0835
11,ACCTTTA,-0.00695
12,CGCCATA,0.0803
13,AATTCGT,-0.0375
14,CGATTAT,-0.0458
15,AGTGTTT,-0.0397
16,AGCCATA,-0.0907
17,CCACAAG,0.0326
18,GCATGAA,0.211
19,CGTATGG,-0.0246
20,GACAACC,-0.0028

# Test system: T5, Rep nickase domain of maize striate mosaic virus
# T5 sequence (residues 1-117 of Rep, tag left off): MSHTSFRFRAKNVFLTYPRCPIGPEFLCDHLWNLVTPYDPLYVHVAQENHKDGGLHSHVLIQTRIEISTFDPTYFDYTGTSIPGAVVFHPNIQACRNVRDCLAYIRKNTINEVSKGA
# Experiment: as above
# Experimental: as §1
row,Sequence,uncleaved DNA left (log2)
1,TCAATCA,0.702
2,GAAGCAG,-0.448
3,ATCCTCT,-0.621
4,AATCTGA,0.86
5,TGTGTGC,-0.743
6,GACTGCT,-0.47
7,TGGTTGG,-0.567
8,AAGATTT,0.649
9,AGCATTA,-0.307
10,AATCGTG,-1.25
11,GGAGTGA,1.61
12,TGTTACG,-1.14
13,CCGCGAT,-0.196
14,AGAATAT,-0.0682
15,TGCCTAC,0.403
16,GTTTACA,1.79
17,GCATAGA,-0.694
18,GCTTTTA,0.946
19,TTCGAAG,-1.27
20,TTGTACA,0.473

row,Sequence,uncleaved DNA left (log2)
1,GAGGGGG,0.295
2,CGGGTAG,-0.308
3,GTCAACG,0.69
4,GATGTAG,-1.09
5,GCGTGCC,0.043
6,AACTGTA,0.604
7,GGAAGAA,1.77
8,ACTTGGC,-1.02
9,TGGCACG,-0.757
10,CGGGTAC,1.58
11,ACCTTTA,-0.815
12,CGCCATA,-0.365
13,AATTCGT,-1.33
14,CGATTAT,-0.253
15,AGTGTTT,0.424
16,AGCCATA,-0.0897
17,CCACAAG,-0.922
18,GCATGAA,-0.203
19,CGTATGG,-0.437
20,GACAACC,0.442

# Source: the supplement of paper PMC7826260
